{"source": "paper PMC12820563", "note": "Some of the results follow. The list includes weakly bound sequences.", "data": [{"molecular_target": "T1, MBP-FoxP3dN (UniProt Q99JB6)", "T1 sequence": "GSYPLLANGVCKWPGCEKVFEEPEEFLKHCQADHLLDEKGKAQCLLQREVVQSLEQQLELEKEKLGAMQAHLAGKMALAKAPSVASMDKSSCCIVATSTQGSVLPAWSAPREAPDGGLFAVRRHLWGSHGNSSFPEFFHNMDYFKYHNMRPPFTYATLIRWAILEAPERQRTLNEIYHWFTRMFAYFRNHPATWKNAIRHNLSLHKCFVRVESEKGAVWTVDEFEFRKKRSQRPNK", "test": "PD-seq (MBP pull-down with sequencing)", "details": "20 mM Tris-HCl pH 7.5, 100 mM NaCl, 1.5 mM MgCl2, 0.4 uM protein, 0.1 uM dsDNA library, 30 min, room temperature, amylose pull-down; high values mean tight binding; double strand, one strand shown", "values": [{"sequence": "GATGATTGTTCTCCCAGCTGATGAATTTGAGAATTCGAGTAAACAAATTTTCCTAATCTTTCTGTTCAAGCGCCATCTAC", "binding signal (RPM ratio (pull-down/input))": 0.708}, {"sequence": "GATGATTGTTCTCCCAGCTGATGAATTCTGTCTCTCGAGTAAACAAATTTTCCTAATCTTTCTGTTCAAGCGCCATCTAC", "binding signal (RPM ratio (pull-down/input))": 1.29}, {"sequence": "GATGATTGTTCTCCCAGCTGATGAATTACGCGCATCGAGTAAACAAATTTTCCTAATCTTTCTGTTCAAGCGCCATCTAC", "binding signal (RPM ratio (pull-down/input))": 1.54}, {"sequence": "GATGATTGTTCTCCCAGCTGATGAATTGCACTAATCGAGTAAACAAATTTTCCTAATCTTTCTGTTCAAGCGCCATCTAC", "binding signal (RPM ratio (pull-down/input))": 0.711}, {"sequence": "GATGATTGTTCTCCCAGCTGATGAATTGACGGTTTCGAGTAAACAAATTTTCCTAATCTTTCTGTTCAAGCGCCATCTAC", "binding signal (RPM ratio (pull-down/input))": 0.526}, {"sequence": "GATGATTGTTCTCCCAGCTGATGAATTCAAGGTCTCGAGTAAACAAATTTTCCTAATCTTTCTGTTCAAGCGCCATCTAC", "binding signal (RPM ratio (pull-down/input))": 0.427}, {"sequence": "GATGATTGTTCTCCCAGCTGATGAATTACTGTACTCGAGTAAACAAATTTTCCTAATCTTTCTGTTCAAGCGCCATCTAC", "binding signal (RPM ratio (pull-down/input))": 0.488}, {"sequence": "GATGATTGTTCTCCCAGCTGATGAATTCGCTGTGTCGAGTAAACAAATTTTCCTAATCTTTCTGTTCAAGCGCCATCTAC", "binding signal (RPM ratio (pull-down/input))": 1.94}, {"sequence": "GATGATTGTTCTCCCAGCTGATGAATTTTGGGAGTCGAGTAAACAAATTTTCCTAATCTTTCTGTTCAAGCGCCATCTAC", "binding signal (RPM ratio (pull-down/input))": 0.255}, {"sequence": "GATGATTGTTCTCCCAGCTGATGAATTACCGGCATCGAGTAAACAAATTTTCCTAATCTTTCTGTTCAAGCGCCATCTAC", "binding signal (RPM ratio (pull-down/input))": 0.768}, {"sequence": "GATGATTGTTCTCCCAGCTGATGAATTGCCATTCTCGAGTAAACAAATTTTCCTAATCTTTCTGTTCAAGCGCCATCTAC", "binding signal (RPM ratio (pull-down/input))": 1.08}, {"sequence": "GATGATTGTTCTCCCAGCTGATGAATTCCTGTAATCGAGTAAACAAATTTTCCTAATCTTTCTGTTCAAGCGCCATCTAC", "binding signal (RPM ratio (pull-down/input))": 0.568}, {"sequence": "GATGATTGTTCTCCCAGCTGATGAATTAGCCGTCTCGAGTAAACAAATTTTCCTAATCTTTCTGTTCAAGCGCCATCTAC", "binding signal (RPM ratio (pull-down/input))": 0.412}, {"sequence": "GATGATTGTTCTCCCAGCTGATGAATTCAAATAATCGAGTAAACAAATTTTCCTAATCTTTCTGTTCAAGCGCCATCTAC", "binding signal (RPM ratio (pull-down/input))": 0.448}, {"sequence": "GATGATTGTTCTCCCAGCTGATGAATTAAGTAATTCGAGTAAACAAATTTTCCTAATCTTTCTGTTCAAGCGCCATCTAC", "binding signal (RPM ratio (pull-down/input))": 1.05}, {"sequence": "GATGATTGTTCTCCCAGCTGATGAATTGTGGTCGTCGAGTAAACAAATTTTCCTAATCTTTCTGTTCAAGCGCCATCTAC", "binding signal (RPM ratio (pull-down/input))": 0.851}, {"sequence": "GATGATTGTTCTCCCAGCTGATGAATTCGAACGGTCGAGTAAACAAATTTTCCTAATCTTTCTGTTCAAGCGCCATCTAC", "binding signal (RPM ratio (pull-down/input))": 0.222}, {"sequence": "GATGATTGTTCTCCCAGCTGATGAATTTTAGACATCGAGTAAACAAATTTTCCTAATCTTTCTGTTCAAGCGCCATCTAC", "binding signal (RPM ratio (pull-down/input))": 0.45}, {"sequence": "GATGATTGTTCTCCCAGCTGATGAATTACACACGTCGAGTAAACAAATTTTCCTAATCTTTCTGTTCAAGCGCCATCTAC", "binding signal (RPM ratio (pull-down/input))": 0.634}, {"sequence": "GATGATTGTTCTCCCAGCTGATGAATTCGAAACCTCGAGTAAACAAATTTTCCTAATCTTTCTGTTCAAGCGCCATCTAC", "binding signal (RPM ratio (pull-down/input))": 0.261}, {"sequence": "GATGATTGTTCTCCCAGCTGATGAATTCAGCACATCGAGTAAACAAATTTTCCTAATCTTTCTGTTCAAGCGCCATCTAC", "binding signal (RPM ratio (pull-down/input))": 0.711}, {"sequence": "GATGATTGTTCTCCCAGCTGATGAATTTGCATCATCGAGTAAACAAATTTTCCTAATCTTTCTGTTCAAGCGCCATCTAC", "binding signal (RPM ratio (pull-down/input))": 6.33}, {"sequence": "GATGATTGTTCTCCCAGCTGATGAATTGGTGGCCTCGAGTAAACAAATTTTCCTAATCTTTCTGTTCAAGCGCCATCTAC", "binding signal (RPM ratio (pull-down/input))": 0.837}, {"sequence": "GATGATTGTTCTCCCAGCTGATGAATTATCAACATCGAGTAAACAAATTTTCCTAATCTTTCTGTTCAAGCGCCATCTAC", "binding signal (RPM ratio (pull-down/input))": 1.44}, {"sequence": "GATGATTGTTCTCCCAGCTGATGAATTGCGGTCCTCGAGTAAACAAATTTTCCTAATCTTTCTGTTCAAGCGCCATCTAC", "binding signal (RPM ratio (pull-down/input))": 0.73}, {"sequence": "GATGATTGTTCTCCCAGCTGATGAATTAGGACCATCGAGTAAACAAATTTTCCTAATCTTTCTGTTCAAGCGCCATCTAC", "binding signal (RPM ratio (pull-down/input))": 0.499}, {"sequence": "GATGATTGTTCTCCCAGCTGATGAATTCACATCCTCGAGTAAACAAATTTTCCTAATCTTTCTGTTCAAGCGCCATCTAC", "binding signal (RPM ratio (pull-down/input))": 0.484}, {"sequence": "GATGATTGTTCTCCCAGCTGATGAATTGTGGGCGTCGAGTAAACAAATTTTCCTAATCTTTCTGTTCAAGCGCCATCTAC", "binding signal (RPM ratio (pull-down/input))": 0.752}, {"sequence": "GATGATTGTTCTCCCAGCTGATGAATTCTTACTCTCGAGTAAACAAATTTTCCTAATCTTTCTGTTCAAGCGCCATCTAC", "binding signal (RPM ratio (pull-down/input))": 0.302}, {"sequence": "GATGATTGTTCTCCCAGCTGATGAATTCCTACAATCGAGTAAACAAATTTTCCTAATCTTTCTGTTCAAGCGCCATCTAC", "binding signal (RPM ratio (pull-down/input))": 0.294}, {"sequence": "GATGATTGTTCTCCCAGCTGATGAATTCATGCCTTCGAGTAAACAAATTTTCCTAATCTTTCTGTTCAAGCGCCATCTAC", "binding signal (RPM ratio (pull-down/input))": 1.85}, {"sequence": "GATGATTGTTCTCCCAGCTGATGAATTCGAGCGCTCGAGTAAACAAATTTTCCTAATCTTTCTGTTCAAGCGCCATCTAC", "binding signal (RPM ratio (pull-down/input))": 0.347}, {"sequence": "GATGATTGTTCTCCCAGCTGATGAATTGACAACCTCGAGTAAACAAATTTTCCTAATCTTTCTGTTCAAGCGCCATCTAC", "binding signal (RPM ratio (pull-down/input))": 0.534}, {"sequence": "GATGATTGTTCTCCCAGCTGATGAATTAATCGCCTCGAGTAAACAAATTTTCCTAATCTTTCTGTTCAAGCGCCATCTAC", "binding signal (RPM ratio (pull-down/input))": 0.621}, {"sequence": "GATGATTGTTCTCCCAGCTGATGAATTAGAAGTCTCGAGTAAACAAATTTTCCTAATCTTTCTGTTCAAGCGCCATCTAC", "binding signal (RPM ratio (pull-down/input))": 0.361}, {"sequence": "GATGATTGTTCTCCCAGCTGATGAATTCTGCTGCTCGAGTAAACAAATTTTCCTAATCTTTCTGTTCAAGCGCCATCTAC", "binding signal (RPM ratio (pull-down/input))": 0.731}, {"sequence": "GATGATTGTTCTCCCAGCTGATGAATTATAGACATCGAGTAAACAAATTTTCCTAATCTTTCTGTTCAAGCGCCATCTAC", "binding signal (RPM ratio (pull-down/input))": 0.664}, {"sequence": "GATGATTGTTCTCCCAGCTGATGAATTAACGGTCTCGAGTAAACAAATTTTCCTAATCTTTCTGTTCAAGCGCCATCTAC", "binding signal (RPM ratio (pull-down/input))": 0.368}, {"sequence": "GATGATTGTTCTCCCAGCTGATGAATTAACTCTTTCGAGTAAACAAATTTTCCTAATCTTTCTGTTCAAGCGCCATCTAC", "binding signal (RPM ratio (pull-down/input))": 0.323}, {"sequence": "GATGATTGTTCTCCCAGCTGATGAATTGTCATTTTCGAGTAAACAAATTTTCCTAATCTTTCTGTTCAAGCGCCATCTAC", "binding signal (RPM ratio (pull-down/input))": 0.999}]}]}
